Laboratory results taken from ChEMBL document CHEMBL4888484, “Replenishing the malaria drug discovery pipeline: Screening and hit evaluation of the MMV Hit Generation Library 1 (HGL1) against asexual blood stage Plasmodium falciparum ,using a nano luciferase reporter read-out” (2022).
Among all 150,000 compounds or so, about 540 (0.36%) showed an effect of 50% or more. Some of the results follow.

test system: Plasmodium falciparum; assay: Primary screen in NF54 nanoGlo assay, in single point, at 2uM, 72h; a lower Z score goes with more inhibition; assay type: functional, Erythrocyte; settings: timepoint 72 hour

SMILES | % Inhibition | Z score
CC(C)C[C@@H](c1nc(-c2ccccc2F)no1)n1ccnc1 | -1% | 0.11
CC(C)C(OCC1CCCO1)C(=O)N1CC(C)C(N(C)C)C1 (stereo not given) | -3% | 0.38
CCCN(C(=O)c1oc(C)nc1C)C1CC(OCC)C1(C)C (stereo not given) | -1% | 0.17
COC[C@H]1CCN(C(=O)Nc2ccc(N3CCCC3)c(C)c2)C1 | -11% | 1.73
CCc1nc(CC)n(Cc2ccccc2Cn2nc(CC)nc2CC)n1 | -14% | 1.29
Cc1cccnc1NC(=O)C1CCCN(C(=O)CC2CCCO2)C1 (stereo not given) | -9% | 1.28
CC(=O)N1CC[C@H](Nc2ccnc(Cc3ccccc3)n2)C1 | -10% | 1.62
CN(C)S(=O)(=O)[C@@H]1CN(c2ncccc2C(=O)O)C[C@H]1C(F)(F)F | 1% | -0.07
CC(C)(O)Cn1nc(-c2ccco2)nc1Cc1ccncc1 | 4% | -0.54
O=C(CN1CCN(C(=O)Nc2ccc(F)cc2)CC1=O)NCc1ccccc1F | -2% | 0.3
Cc1nc(C)c(CC(=O)Nc2nnc(C3CC3)s2)s1 | -6% | 0.72
CC1CN(c2nnnn2[C@@H]2CCO[C@@H]2C)CC2(CCCC2)O1 (stereo not given in full) | -2% | 0.24
CNc1snc(C)c1C(=O)Nc1cc(S(=O)(=O)N2CCCC2)ccc1O | -7% | 1.09
CCN(Cc1ccco1)C(=O)[C@@H]1Cc2[nH]cnc2C2(CCCCC2)N1 | 0% | -0.05
CNS(=O)(=O)c1cc(N)ccc1OC | 8% | -1.1
O=C(Nc1nc2n(n1)CCCC2)NC1CCC1 | -3% | 0.6
O=C1NC(=O)[C@@H]2CN(Cc3cc(Cl)cc4c3OCC4)C[C@H]12 | -4% | 0.57
O=C(C1c2ccccc2Oc2ccccc21)N1CCOCC1 | 5% | -0.91
Cc1ccc(-n2cc(C(=O)O)c(-c3ccccc3)n2)c(N)n1 | -5% | 0.96
CNC(=O)COC(=O)c1c(F)cccc1Cl | -8% | 1.59
O=C1OC2(CCN(S(=O)(=O)Cc3cc(F)ccc3F)CC2)c2ccccc21 | -19% | 2.49
O=C(NCCc1cccc(F)c1F)N[C@H]1CC12CCOCC2 | -8% | 1.68
CCCN1CCC[C@H](NC(=O)c2cc(OC)c(OC(C)C)cc2Cl)C1 | -11% | 2.17
CN1CCCC[C@H](CNC(=O)c2cn(-c3cccc(Cl)c3F)nn2)C1 | -1% | 0.19
CCCCNC(=O)N1C[C@H](OC)C[C@@H]1COc1cccnc1 | -5% | 1.16
CC1CCC(C(N)=O)CN1C(=O)Nc1ccccc1N1CCN(C)CC1 (stereo not given) | -15% | 1.34
CCc1ccc(S(=O)(=O)N(CCC(=O)N2CCNCC2)C2CCCC2)cc1 | -5% | 0.83
CCn1nccc1S(=O)(=O)NCc1ccncc1OC[C@H]1CCOC1 | -2% | 0.3

SMILES | % Inhibition | Z score
O=C(COCC(F)(F)F)NCc1ccccc1C(F)(F)F | 0% | -0.05
COc1ncc(CN2CCc3[nH]cnc3[C@@H]2C(C)C)cn1 | -10% | 1.9
Cn1cccc(C(=O)NCC2CCN(c3cnccn3)CC2)c1=O | -1% | 0.11
O=C(Cc1ncc(Br)cc1Cl)NC1CCCCC1 | 4% | -0.55
CCC(=O)N(CC(=O)Nc1nc(-c2ccccc2)cn1-c1ccc(C(C)C)cc1)CC(C)C | -18% | 1.72
C[C@H]1c2cc(F)ccc2CCN1C(=O)NCCCC(=O)N(C)C | 6% | -0.71
CC(C)[C@H](NC(=O)c1cccs1)c1nc2ccccc2n1C(C)C | -1% | 0.1
CC(C)c1ncsc1C(=O)N1CCC(n2cc(Cl)cn2)CC1 | -5% | 0.73
Cn1ccnc1CNC[C@@H](O)c1ccc(C(F)(F)F)cc1 | -6% | 1.25
CC(C)c1cc(C(=O)N(CCNS(C)(=O)=O)C2CC2)nn1-c1ccccc1 | -6% | 0.81
CN(CC1CCCC1)C(=O)c1cc2c([nH]c1=O)CCCC2=O | 32% | -3.21
COc1cccc(CNS(=O)(=O)c2c[nH]c(-c3nnc(C)o3)c2)c1 | -10% | 1.92
CC(C)(C)c1noc(CNC(=O)COC[C@H]2CCCO2)n1 | -3% | 0.63
CCN(CC(=O)Nc1ccc(Cl)cc1F)Cc1noc(C2CCC2)n1 | 4% | -0.76
O=C(Cn1nc(-c2ccccc2)ccc1=O)N1CC[C@@]2(O)CCCC[C@H]2C1 | -8% | 1.49
CCOc1cccc(CCC(=O)N2CCCNC(=O)[C@@H]2CC)c1 | -5% | 0.81
O=C(NC[C@H]1CCCO1)c1ccc(-c2cnc3ncnn3c2)cc1 | -21% | 1.83
Cc1ncc(C(=O)N2CC(C)(C)Oc3cc(Br)ccc32)c(C)n1 | -11% | 1.02
O=C(c1coc(CN(Cc2ccc3c(c2)OCO3)Cc2ccccc2F)n1)N1CCOCC1 | -1% | 0.2
CC(=O)N[C@H]1CN(C(=O)c2ccc3nccnc3c2)C[C@@H]1c1ccc(C)cc1 | -4% | 0.72
C[C@@H](CNC(=O)c1cc(C#N)c[nH]1)N(C)C(=O)c1cc(C#N)c[nH]1 | 5% | -0.62
CCn1nccc1C(=O)N1CC(N(C)Cc2cccnc2)C1 | -9% | 1.66
COC(=O)N1CC(C)(NC(=O)Nc2nn(C)cc2C)C1 | -9% | 1.61
CCNC(=O)[C@@H](NC(=O)c1nnn(Cc2cc(C)no2)c1C)C(C)C | 4% | -0.48
CC1=C(C)CC(C(=O)N2CCc3ccccc32)C(C(=O)O)C1 (stereo not given) | -9% | 1.81
CCCc1nc(CN2CCc3cc(F)ccc3C2)no1 | -5% | 0.81
CCn1ccc(C(=O)NCCn2c(C)cnc2COC)n1 | 4% | -0.44
